Laboratory results reported in PubChem BioAssay AID759 (NMMLSC, 2007).
Hit rate of the full screen: of about 190,000 compounds, about 270 (0.14%) were called active. Inconclusive means that the source gave no clear call. Such entries were picked first, then a sample of the others.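 Rule for the calls: active = GTP binding activity at least 20% away from the 100% baseline, either lowered as inhibitor or raised as activator; inconclusive = flagged as likely green fluorescent, judged across all proteins in the well; inactive = the rest.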

The compounds below were run against GTPase HRas (Homo sapiens) (UniProt P01112) (assay: HRas wt fluorescent GTP binding changes, either direction – biochemical, wildtype, bead-based flow cytometry, multiplex, primary screen (AID 759;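 note: 0% = unlabeled GTP competition control and 100% = no-compound control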)). Details: GST-Ras wt beads, Bodipy-FL-GTP binding, at 10 µM, actives lie on both sides.
Sequence of UniProt P01112 (P01112 whole entry, looked up): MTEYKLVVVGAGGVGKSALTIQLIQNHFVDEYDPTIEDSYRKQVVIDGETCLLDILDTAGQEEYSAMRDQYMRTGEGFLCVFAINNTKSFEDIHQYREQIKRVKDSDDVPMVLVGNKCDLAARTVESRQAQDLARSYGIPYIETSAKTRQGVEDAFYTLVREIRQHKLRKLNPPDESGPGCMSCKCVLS

GTP binding activity, inactive:
O=C(Nc1ccccc1)C1=C(c2ccccc2)S(=O)(=O)CCS1(=O)=O 90%, CN(NC(=O)CN1C(=O)c2ccccc2C1=O)C1=NS(=O)(=O)c2ccccc21 99%, O=C(CN1CCN(CCOCCO)CC1)N1c2ccccc2Sc2ccc(Cl)cc21 103%, COc1ccccc1CNC(=O)CSc1ccc(-c2cccc([N+](=O)[O-])c2)nn1 99%, COc1ccc(-n2c(SCC(N)=O)nc3sc4c(c3c2=O)CCC4)cc1 105%, O=C(Cc1ccc(Cl)cc1)Nc1ccc2c(c1)C(=O)NC2=O 92%, CCC(Sc1nc(N)c(NC(=O)c2ccc(OC)cc2)c(=O)[nH]1)C(=O)O (configuration not stated) 95%, O=c1cc(CN2CCN(S(=O)(=O)c3ccc4c(c3)OCCO4)CC2)c2ccc(O)cc2o1 95%, N#Cc1ccc(N/N=C/c2ccccc2)c([N+](=O)[O-])c1 100%, CSc1ccc(S(=O)(=O)Nc2ccc(N3CCOCC3)c(Cl)c2)cc1 104%, CCOc1ccc(CCNC(=O)CCS(=O)(=O)c2ccc(OC)cc2)cc1OCC 103%, CC(C)C1NC(=S)N(Cc2ccccc2)C1=O (configuration not stated) 97%, c1csc(-c2nnc(COc3ccc4c(c3)OCO4)o2)c1 96%, COCCCNC(=O)CN(c1cc(Cl)ccc1OC)S(C)(=O)=O 96%, COc1ccc(C)cc1NC(=O)c1ccccc1NS(=O)(=O)c1cccc2cccnc12 99%, Cc1c(CN(C)C(=O)/C=C/c2ccc([N+](=O)[O-])cc2)cnn1C 96%, O=C(O)CCN1CCc2ccccc2C1c1cccs1 (configuration not stated) 103%, Cc1ccc(S(=O)(=O)N2CCC(C(=O)NNC(=O)c3ccc(F)cc3)CC2)cc1 98%, Cc1ccc(S(=O)(=O)N2CC3(C)CN(S(=O)(=O)c4ccc(C)cc4)CC(C)(C2)C3O)cc1 (configuration not stated) 101%, C/C(=C/C(=O)O)C(=O)Nc1cccc(C(F)(F)F)c1 98%, COc1cccc(-c2nnc3sc(-c4ccco4)nn23)c1 103%, COc1ccc(C(=O)C2CCCN(S(=O)(=O)C(C)C)C2)c(C)c1 (configuration not stated) 93%, Brc1cccc(CNc2nc3ccccc3n2CCN2CCOCC2)c1 96%, COc1ccccc1N1C(=O)c2cccc3c(C(=O)O)ccc(c23)C1=O 103%, O=[N+]([O-])c1ccc(OCc2cnc(Cl)s2)c([N+](=O)[O-])c1 95%, O=C(Nc1cccc(-c2ccc3nncn3n2)c1)c1ccco1 85%, COc1ccc(NC(=O)CSc2ccc3nnc(-c4cccnc4)n3n2)c(OC)c1 84%, O=C(CSC1CC(=O)N(c2ccc(C(=O)O)cc2)C1=O)Nc1ccc(Cl)cc1 (configuration not stated) 96%, O=C(O)C12C[C@H]3C[C@@H](C1)CC(n1ncc(N4CCN(c5ccccc5)CC4)c(Cl)c1=O)(C3)C2 101%, CCOC(=O)C1(CCc2ccccc2)CCN(Cc2cccc3nccnc23)CC1 96%, N#C/C(=C(/O)CCCl)c1ccccn1 97%

GTP binding activity, active:
Cc1ccc(-c2csc3nc4c5ccccc5c(NCCCN(C)C)nn4c(=O)c23)cc1 73%, COc1cccc(OC)c1-c1nn2c(-c3cc(-c4ccccc4)n[nH]3)nnc2s1 162% [activator], O=C(O)c1ccccc1OCCOc1ccccc1 123% [activator], Cc1sc2ncnc(Sc3ccccc3C(=O)O)c2c1C 124% [activator], COc1ccc(-c2csc(C3=C(O)CN(C(C)C)C3=N)n2)cc1OC 76%

GTP binding activity, inconclusive:
CCS(=O)(=O)NC(C)C(c1cccs1)N1CCN(c2ccc(OC)cc2)CC1 (configuration not stated) 91%, CC(C)(C)OC(=O)N1CCC[C@H]1c1nnc(SCc2ccc(Cl)cc2Cl)o1 88%, COCCNC(=O)Nc1ccc2nc(-c3ccco3)c(-c3ccco3)nc2c1 85%, COc1cc(/C=N\NC(=O)c2sc(N)nc2C)cc(OC)c1OC 76%, Cc1cccc(N2C(=O)CC(N(O)c3ccccc3)C2=O)c1 (configuration not stated) 104%, CS(=O)(=O)N1CCN(c2ccccc2NC(=O)c2ccco2)CC1 93%, Cc1ccc2c(CSc3nncn3C)cc(=O)oc2c1C 95%, COc1ccc2cc(CCNC(=O)C3CC3)c(=O)[nH]c2c1 96%, C/C(=N\NC(=O)c1ccco1)c1ccc(NC(=O)c2ccccc2)cc1 97%, O=C1CC(c2nc3ccccc3[nH]2)CN1c1ccccc1F (configuration not stated) 100%, CC(=O)c1cc(-c2ccccc2)n(CC(=O)Nc2cccc(C)c2C)c1C 104%, Cc1ccc(CNC(=O)C2CCN(S(=O)(=O)N3CCCCC3)CC2)cc1 96%, O=S(=O)(c1ccc(F)cc1)n1ccc2cccnc21 104%, NC(=S)Nc1nccc(-c2cccs2)n1 91%, CCOC(=O)c1c(N)sc(C(=O)Nc2ccccc2)c1C 94%, Cc1ccc2c(c1)N(CCC(=O)NC1CC1)C(=O)C(C)O2 (configuration not stated) 101%, Cc1cc(C(=O)N/N=C/c2ccc(O)c([N+](=O)[O-])c2)c(C)n1-c1ccc(F)cc1 89%, COc1cc(C)ccc1OCCOc1c(Cl)cc(Cl)cc1Cl 94%, CCCCNc1nc(=S)[nH]c2cc(OC)c(OC)cc12 60%, Nn1cnnc1SCC(=O)Nc1ccc2c(c1)OCO2 94%, COc1ccc(/C=C(\C#N)C(=O)OCC(=O)Nc2ccc(-c3nc4ccc(C)cc4s3)cc2)cc1 94%, O=C(NCC1CCCO1)C1CC(=O)N(C2CCCC2)C1 (configuration not stated) 105%, COc1ccc(C2Nc3ccccc3C(=O)N2c2ccc(C)cc2)cc1Cn1nnc2ccccc21 (configuration not stated) 91%, O=C(Nc1ccc2c(c1)CCC2)c1cccc(S(=O)(=O)N2CCN(c3ccc(F)cc3)CC2)c1 108%, C=CCn1c(=O)c(C(=O)Nc2ccccc2S(N)(=O)=O)c(O)c2ccccc21 92%, Cc1c(C(=O)Nc2cccc3cccnc23)oc2ccccc12 97%, CCOc1ccc(/C=C/c2c([N+](=O)[O-])c(=O)n(C)c(=O)n2C)cc1 91%, Brc1ccc(CSc2ncn[nH]2)cc1 108%, O=C(CN1CCN(c2ccc(O)cc2)CC1)Nc1cc(S(=O)(=O)N2CCCCC2)ccc1Cl 90%, Brc1ccc(Nc2nc3ccccc3n3nnnc23)cc1 103%, C=CCNC(=O)c1cc(Cl)ccc1Cl 105%, CSCCC(NC(=O)c1ccccc1)C(=O)O (configuration not stated) 93%, Cc1cc(Nc2ccc(F)cc2)n2nc(C)nc2n1 102%, Fc1ccccc1NC(=S)N1CCN(Cc2ccccc2)CC1 103%, O=C(Nc1cccc(F)c1)NC1CC2CCCC(C1)N2C1CC1 (configuration not stated) 105%, COc1ccccc1NC(=O)c1ccc(-c2ccc(Br)cc2)o1 90%, Cc1ccc2cc3c(NC(=O)C4CCCO4)nn(CC(C)C)c3nc2c1 (configuration not stated) 104%, Cc1cc(=O)nc2c3ccccc3n(C(C)C(=O)Nc3c(F)c(F)c(F)c(F)c3F)n12 (configuration not stated) 91%, CC(C)(O)C#Cc1ccc(C(=O)NCCc2ccc(S(N)(=O)=O)cc2)cc1 88%, CC(=O)OCC#CCSc1nc2ccccc2n1C 101%, CCCCN(C(=O)CSc1cc(C)c2ccccc2n1)c1c(N)n(Cc2ccccc2)c(=O)[nH]c1=O 102%, COc1ccc2ccccc2c1CN1CCN(Cc2ccccc2)CC1 103%, Cc1cccc(C)c1OCc1n[nH]c(=S)n1N 97%, Cn1c(NC(=S)Nc2ccccc2)nc2ccccc21 123%, Cn1cccc1/C=C1\SC(=S)N(NC(=O)c2cccc(Cl)c2)C1=O 97%, CCCN(CCC)CCCNC(=S)Nc1ccc2nc(N3CCCC3)cc(C)c2c1 94%, CCCCCOc1ccc(NC(=O)C(=O)NCCC2=CCCCC2)cc1 105%, O=S(=O)(NC1CCCC1)c1cccc(S(=O)(=O)N2CCC(n3nnc4ccccc43)CC2)c1 101%, CC(C)NC(=O)CSc1nnc(-c2ccncc2)n1-c1ccccc1 103%, CCn1c(=O)cc(OCC(=O)NCCCN2CCN(c3cccc(Cl)c3)CC2)c2ccccc21 89%, Cc1ccc(S(=O)(=O)NCC(=O)OC(C)C(=O)Nc2ncc(Cl)cc2Cl)cc1 (configuration not stated) 98%, COCc1cc(C)nc2sc(C(=O)Nc3nccs3)c(N)c12 80%, CCOC(=O)C1C(=O)OC(C)(C)C1C(C)C(=O)c1ccc(C)cc1C (configuration not stated) 95%, N#Cc1ccc(OCC(=O)NCCc2ccc(S(N)(=O)=O)cc2)cc1 102%, CCc1ccc2[nH]c3nc(SCc4nnc(-c5ccc(C)cc5)o4)nnc3c2c1 103%, Cc1cc(C)cc(N(C(=O)CCC(=O)Nc2cc(C)on2)C(C(=O)NC2CCCC2)c2ccco2)c1 (configuration not stated) 92%
